Among the data in publication PMC12136788 are binding signal values, retold here.

Some of the results follow.

First the molecules themselves.
B1: chr18:46811193:46811294:-|3pUTR|ENSG00000078043|unk|FALSE|unique (ssRNA)
RNA: GGGAGUUCUACAGUCCGACGAUCUUUUUUUUCAUUUUUUUAAAAUGAUAUCUUACCUGAAACUACAAACGACAAAAGAGAAUUAGAAAUGUUUGAAUUAAAGUGAAGAAGGGUUGGGGGAGAUGGGCCUGAACCCACUUCCUGCAACAGAGGAUUGAGCAUCA
B2: chr15:64675409:64675510:+|CDS|ENSG00000180357|msi1|total|mutant (ssRNA)
RNA: GGGAGUUCUACAGUCCGACGAUCAACCAACAGCCCUGCAUACUCUGACAUCUCUGAUGCUGGGGAGGAUGGGGAGGGCAAGGCCGACAGUGUCAAAUCAAAGGACGCCGAACAGUUGGUUAAAGAAGGGGCUAAGAAAACUCUCAACAGAGGAUUGAGCAUCA
B3: chr20:63933867:63933968:+|3pUTR|ENSG00000101152|msi1|FALSE|unique (ssRNA)
RNA: GGGAGUUCUACAGUCCGACGAUCAUCAGAGUGGGCCCCUUGCCAGGUGGCUUUUCAGUUACAGAGUCCAGUGGACCAUUUUGUAGAACCAUGCAGCUCCCUGCGGAAGGUGGGGUAGGGUGGGAAAGAGGAGCAGGUCUGGAGCAACAGAGGAUUGAGCAUCA
B4: chr16:67098774:67098826:+|CDS_3pUTR|ENSG00000067955|msi1_unk|total|mutant (ssRNA)
RNA: GGGAGUUCUACAGUCCGACGAUCAGACCCCCGUCCUGGUUCCAAUUCCGGUGGUGGUGAUGACCUCAAACUUCGUUAAUUAACCGCACAGCAGAUGUGUGCUGCCCAUCUUUACAUACACAUUGCUUCCCGUUGGCAGAAAUACAACAGAGGAUUGAGCAUCA
B5: chr1:167421552:167421653:+|3pUTR|ENSG00000143190|unk|total|mutant (ssRNA)
RNA: GGGAGUUCUACAGUCCGACGAUCUUUUCUUCUAACCUUAUUCAUUAAGCCGUUCCUUGUUUUGGCCCUUCUACUCUUGGCCUCCGCUAAAAGCAGUAAAUGUGAGUGAAUUUUAUGUUGAUUAUGUCACCUGGAUCUCCUUUCCAACAGAGGAUUGAGCAUCA
B6: chr1:24654915:24655033:+|CDS|ENSG00000133226|unk|total|mutant (ssRNA)
RNA: GGGAGUUCUACAGUCCGACGAUCUCACGGUCACCACCAAAGAAGCCUCCCAAGAGGACAUCCAGCCCCCCUCGGAAAACUCGCCGGUUAUCUCCUUCAGCAAGUCCUCCAAGGCGAAGGCACAGGCCAUCACCUCCUGCAACUCAACAGAGGAUUGAGCAUCA
B7: chr9:74692981:74693082:+|3pUTR|ENSG00000198963|unk|FALSE|unique (ssRNA)
RNA: GGGAGUUCUACAGUCCGACGAUCUUUUAUAUUACUUUAGAAUGUAAUAGGUUUUUGUCCUUAUUUUAUGUCCUGUAAAUUAUUAGUUCAAUACUGUUAGCAUUCCCGGAUAAUGCACACAUGAUUUCUGAAUGUUUUCUGUAACAACAGAGGAUUGAGCAUCA
B8: chr5:90513983:90514084:+|3pUTR|ENSG00000113356|unk|total|mutant (ssRNA)
RNA: GGGAGUUCUACAGUCCGACGAUCAAAUACACUGAAGAUAAAGGUUAUUUCUUUUUUCCGCUUUGAAUUUGUCAUGACCAUUUCCGUCUUGCAGACCGCAGGGCAGCCCCUUGGGGCAAGGAUUUACUCUGGGAGGUACCGUUACAACAGAGGAUUGAGCAUCA
B9: chr2:73958838:73958951:+|3pUTR|ENSG00000114956|unk|total|mutant (ssRNA)
RNA: GGGAGUUCUACAGUCCGACGAUCCCAGCCCCUCUCAUCCCUGGAGCACUCUGCCGCUCAAGAGCUGGUUUGUUAAUUAUUGUCCGACUUUGCCAUUGUUUUCUUUUGUACCUGAAGCAUUUUGAAAAUAAAGUUUACUUAAGUCAACAGAGGAUUGAGCAUCA
B10: ENSG00000124766:be:win_2401|3pUTR|ENSG00000124766|bound_else_gene|NA|bound_elsewhere_windowed (ssRNA)
RNA: GGGAGUUCUACAGUCCGACGAUCCAGUCAGUGGAGGGCGAGUGGUUUCGGAAAAAAAAAAAGAAAAAAAGAAAAAAAAAGAAAAAAAAAAGAUUUUUUUCUUCUCUUAAUCGGAAUCGUGAUGGUGUUGGAUUAUUUCAAUGGCAACAGAGGAUUGAGCAUCA
B11: ENSG00000180900:stop:overlap|stop_codon|ENSG00000180900|stop_codon|NA|stop_codon (ssRNA)
RNA: GGGAGUUCUACAGUCCGACGAUCUGUGCAGCAGCCGCCGCCCCGUAAGGCCUGGGCGCCGUGGCCUGGGCCCUGUGCCCUCCUAGAGGAGCAGGCACCUCCCCCAGACUUGGGGUGGGGGCCCUGCCAGCUCCAGCACCACCCCAACAGAGGAUUGAGCAUCA
B12: chr1:193014253:193014354:-|3pUTR|ENSG00000116750|unk|total|mutant (ssRNA)
RNA: GGGAGUUCUACAGUCCGACGAUCUUAACCGGUAUAAGGAUUUUUCUUAUUAAUCUAAUAAAAUUCCUUAACCGGAAUUUCCACCGCUUAAGAGUGGUUUAUUUUAUCUGCAUCUUCUUUGGUGAUUGCAAAUCCCUUGUGAUACAACAGAGGAUUGAGCAUCA
B13: chr1:67411267:67411372:-|3pUTR|ENSG00000142864|unk|FALSE|unique (ssRNA)
RNA: GGGAGUUCUACAGUCCGACGAUCAACUCAUUUCCAAACAUGUACCAUGUUUUAUAAACCUCUUGAUUUCCAGCAACAUACUAUAGAAAACACCUGCUACUCAAAACACAACUUCUCAGUGUCAUCCAUUGCUGUCGUGAGAGACAACAGAGGAUUGAGCAUCA
B14: chr7:103374401:103374592:-|CDS|ENSG00000170615|control|control|control (ssRNA)
RNA: GGGAGUUCUACAGUCCGACGAUCCCUGCCCUAUGGGAGCUGCUGUUCCACAGCAUUCAUGAUGCAGUUUUAGGCAGCCAACUUAGAGAGGCACUUGCUGAACAGGAAGCCUCGGCUCCCCCUUCCCAGGAGGACUUGGAGCCCCAACAGAGGAUUGAGCAUCA
B15: chr22:21448335:21448436:+|3pUTR|ENSG00000169635|unk|total|mutant (ssRNA)
RNA: GGGAGUUCUACAGUCCGACGAUCGCAGUCCUGGCCCCCGGCCACUGUCUCGGGGCCCACCUCUCGCCCCUCAUCUUGGUAAUCCGCCAGCCUCAGAUACUUCUGUGGGCCCUGAAGUGGGCUCUCAAGGUCAGACCAAGGUUGCAACAGAGGAUUGAGCAUCA
B16: chr12:25205306:25205412:-|3pUTR|ENSG00000133703|unk|total|mutant (ssRNA)
RNA: GGGAGUUCUACAGUCCGACGAUCGUCAUAUCAAACAUUAAAAAUGACCACUCUUUUAAUUGAAAUUAACUUUUAAAUGUUUACCGGAGUAUGUGCUGUGAAGUGAUCUAAAAUUUGUAAUAUUUUUGUCAUGAACUGUACUACCAACAGAGGAUUGAGCAUCA
B17: chr11:22846921:22847509:-|three_prime_utr|ENSG00000255359|control|control|control (ssRNA)
RNA: GGGAGUUCUACAGUCCGACGAUCCUCCACCAUUUCGGAAAAAUAAACACAGUGCAAGUAUUUAAUAUCCAAGCUACAGGCUCUAGAAUUUUAUUAAAUGCCAUCUCUCACUACCAUAUUUUUCUUUCCUGUGGUAAACUUGAACAACAGAGGAUUGAGCAUCA
B18: chr8:65707876:65707977:+|CDS|ENSG00000066855|unk|total|mutant (ssRNA)
RNA: GGGAGUUCUACAGUCCGACGAUCCCUGCUGCCCUCACCGCAGAGGCUCUGAAAAAGAAAUUUGCUUAUCGGUAUCGAAGUGACCGCCAAGAUGAAGUUGAAAAAGGAAUUCCAAAGUCUGAAUCAGAGGCCACCUCAGAGAGACAACAGAGGAUUGAGCAUCA
B19: chr13:106491261:106491362:-|3pUTR|ENSG00000125266|msi1|total|mutant (ssRNA)
RNA: GGGAGUUCUACAGUCCGACGAUCACAAUAAUGAGAGCAAAUGCAAAAAUAACCAAGUCCUCCGAAGGCAUCUCACGGAACCGCCGACCCGGAAGUACGAGCCCCACAGAGCAGGAAGCCGAUGUGACUGCAUCAUAUAUUUAACAACAGAGGAUUGAGCAUCA
B20: chr16:66769962:66770309:-|CDS|ENSG00000249961|control|control|control (ssRNA)
RNA: GGGAGUUCUACAGUCCGACGAUCCUCCAUGCAGAUCGGAUUGGUCGAGGUAGCAAAGCAGAAGAUGAGGAUAAAAGCCAUUCUAGACAGUUACAGAGUUAUAAGUCCCAUGGAGUCAUGUCUAAAGCAUGUACAAAUGAUGACCAACAGAGGAUUGAGCAUCA
B21: chr2:224001733:224001845:-|CDS|ENSG00000135919|unk|FALSE|bound_elsewhere (ssRNA)
RNA: GGGAGUUCUACAGUCCGACGAUCGGCCUCUGUGACGCUGCCUUCCAUCUGCUCCCACUUCAAUCCUCUGUCUCUCGAGGAACUAGGCUCCAACACGGGGAUCCAGGUUUUCAAUCAGAUUGUGAAGUCGAGGCCUCAUGACAACAACAGAGGAUUGAGCAUCA
B22: chr17:27756765:27757353:-|three_prime_utr|ENSG00000007171|control|control|control (ssRNA)
RNA: GGGAGUUCUACAGUCCGACGAUCCAAGUCUUAUUUCCUCAACGUUGCUCCCCAUCAAGCCCUUUACUUGACCUCCUAACAAGUAGCACCCUGGAUUGAUCGGAGCCUCCUCUCUCAAACUGGGGCCUCCCUGGUCCCUUGGAGCAACAGAGGAUUGAGCAUCA

For the assay, the target named is MSI1 full-length (mouse, UniProt Q61474 1-362). Description: nsRBNS (natural sequence RNA bind-n-seq); RBNS binding buffer (assumed for nsRBNS): 25 mM Tris pH 7.5, 150 mM KCl, 3 mM MgCl2, 0.01% Triton X-100, 500 ug/ml BSA, 20 U/ml SUPERase-In, 4 C; UNK is unkempt and MSI1 is Musashi-1; names of the RNAs are library labels; protein concentration not given here; high values mean tight binding.
Sequence of UniProt Q61474 (Q61474 whole entry): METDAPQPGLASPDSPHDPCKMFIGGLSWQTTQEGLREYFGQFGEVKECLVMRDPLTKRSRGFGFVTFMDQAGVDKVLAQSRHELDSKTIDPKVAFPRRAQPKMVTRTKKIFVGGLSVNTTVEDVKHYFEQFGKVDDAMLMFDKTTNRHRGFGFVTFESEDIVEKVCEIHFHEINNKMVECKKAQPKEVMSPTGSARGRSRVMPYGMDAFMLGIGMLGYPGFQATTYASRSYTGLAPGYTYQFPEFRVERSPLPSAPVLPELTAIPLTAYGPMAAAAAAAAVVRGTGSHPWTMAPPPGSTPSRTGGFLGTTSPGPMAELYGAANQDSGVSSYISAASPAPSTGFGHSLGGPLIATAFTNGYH
With B1, the binding signal was found to be 0.704 enrichment R.

B2 returned a binding signal of 0.416 enrichment R.

B3 returned a binding signal of 0.648 enrichment R.

B4 came in with a binding signal of 0.617 enrichment R.

B5: the binding signal was 0.517 enrichment R.

Regarding B6, the binding signal came out at 0.541 enrichment R.

The molecule B7 registered a binding signal of 2.02 enrichment R.

For B8, the binding signal was 0.317 enrichment R.

On to B9, for which the binding signal was found to be 0.566 enrichment R.

B10 registered a binding signal of 0.561 enrichment R.

In turn, B11 returned a binding signal of 0.448 enrichment R.

Turning to B12, the binding signal worked out at 0.327 enrichment R.

On to B13, for which the binding signal amounted to 1.02 enrichment R.

Molecule B14 returned a binding signal of 0.468 enrichment R.

B15 gave a binding signal of 0.39 enrichment R.

Molecule B16 yielded a binding signal of 0.498 enrichment R.

Turning to B17, the binding signal is 0.577 enrichment R.

As to B18, the binding signal came out at 0.312 enrichment R.

B19 registered a binding signal of 0.694 enrichment R.

With B20, the binding signal was determined as 1.22 enrichment R.

Consider B21, for which the binding signal turned out to be 0.435 enrichment R.

Turning to B22, the binding signal worked out at 0.402 enrichment R.
